Test results taken from PubChem BioAssay AID596 (National Center for Advancing Translational Sciences (NCATS), 2007).
The campaign covered roughly 71,000 compounds. About 1,400 (2%) were called active. Inconclusive results, whose numbers are uncertain, are shown with a selection of clear calls. Calls follow the shape of the dose curve; as a rule, active = well fitted curve in the direction sought with a large enough effect; inconclusive = small, poorly fitted or top-dose-only effect; inactive = no such curve, though single readings can be large or run the other way. Where the call is inconclusive, the potency comes from a doubtful curve fit.

molecular target: Microtubule-associated protein tau (Homo sapiens) (UniProt P10636); assay: qHTS Assay for Tau Filament Binding; settings: recombinant tau filaments, thioflavin S fluorescence, 15 h; series mostly up to 57.1 µM; activity change, negative = inhibition: at the top concentration;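 also: actives lower thioflavin S fluorescence by blocking filaments or displacing dye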
Procedure, shortened: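 His-tagged recombinant human tau (exons 2, 3, 10; 1 uM final) fibrillized with 30 uM sodium octadecylsulfate, 15 h at 37 C, in pH 7.4 HEPES buffer with 10 uM thioflavine S and 5 mM DTT. Reduced ThS fluorescence (450/510 nm) marks activity.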
% is scaled to controls: 0 for no effect and ±100 for the full control effect; potency is read from the fitted curve at half-maximal effect.

**Q.** Which Potency does the source give for `CC1CN=C(Nc2cccc3ccccc23)S1` (stereo not drawn) here?
**A.** inconclusive: 39.8 µM [decreasing]

**Q.** Which “activity change, negative = inhibition” value does the source give for `O=[N+]([O-])c1cccc(O)c1` here?
**A.** inactive: 6.5%

**Q.** How did the “activity change, negative = inhibition” value turn out when `O=C(Oc1ccccc1)N1CCC[C@@]2(CCN(Cc3cc(C(F)(F)F)cc(C(F)(F)F)c3)C2)C1` was run?
**A.** inactive: -20.3%

**Q.** For `CC(=O)C1=C(O)[C@@H]2[C@@H]3c4c[nH]c5cccc(c45)C[C@@H]3C(C)(C)N2C1=O`, which Potency is on record?
**A.** inconclusive: 39.8 µM [decreasing] [filaments grown with octadecylsulfate alongside compound]

**Q.** `C[C@H](N)Cc1c[nH]c2ccc(OCc3cccs3)cc12` was tested. Which Potency did it give?
**A.** inconclusive: 39.8 µM [decreasing]

**Q.** With `Nc1ccc2ccccc2c1` as the molecule, how does the “activity change, negative = inhibition” value read?
**A.** inactive: 2.5%

**Q.** For `NCc1cc(=O)[nH]o1`, which Potency is on record?
**A.** inconclusive: 39.8 µM [decreasing]

**Q.** For `CCCN(CCC)[C@@H]1CCc2cccc(O)c2C1`, which Potency is on record?
**A.** inconclusive: 39.8 µM [decreasing]

**Q.** How did the Potency turn out when `CCCN1CCc2cc(O)cc3c2[C@H]1Cc1ccc(O)c(O)c1-3` was run?
**A.** active: 25.1 µM

**Q.** `C[C@H]1CC[C@]2(NC1)O[C@@H]1C[C@@H]3[C@@H]4CC=C5C[C@H](O)CC[C@@]5(C)[C@H]4CC[C@@]3(C)[C@H]1[C@@H]2C` was tested. Which Potency did it give?
**A.** inconclusive: 39.8 µM [decreasing] [filaments grown with octadecylsulfate alongside compound]

**Q.** `Clc1ccc([C@@H]2C[C@H]3CC[C@@H]2N3)cn1` was tested. Which Potency did it give?
**A.** inconclusive: 39.8 µM [decreasing] [filaments grown with octadecylsulfate alongside compound]

**Q.** For `CCCN1C[C@H](C)N([C@H](c2ccc(C(=O)N(CC)CC)cc2)c2cccc(OC)c2)C[C@H]1C`, which Potency is on record?
**A.** inconclusive: 39.8 µM [decreasing]

**Q.** Which “activity change, negative = inhibition” value does the source give for `CCCCCC[N+](=O)[O-]` here?
**A.** inactive: -5.6%

**Q.** For `CCCN(CCC)[C@@H]1CCc2c(OC)cccc2[C@@H]1C`, which “activity change, negative = inhibition” value is on record?
**A.** inactive: -29.3%

**Q.** With `C[C@@H](Cc1ccc(OCC(=O)O)cc1)NC[C@H](O)c1cccc(Cl)c1` as the molecule, how does the Potency read?
**A.** inconclusive: 39.8 µM [decreasing]

**Q.** How did the Potency turn out when `COc1cc2c(c(OC)c1OC)-c1ccc(O)c(=O)cc1[C@@H](NC(C)=O)CC2` was run?
**A.** inconclusive: 39.8 µM [decreasing]

**Q.** With `COC(=O)CN1CN(c2ccccc2)C2(CCN(Cc3ccc4ccccc4c3)CC2)C1=O` as the molecule, how does the Potency read?
**A.** inconclusive: 39.8 µM [decreasing]

**Q.** `Nc1cc(Cl)ccc1O` was tested. Which Potency did it give?
**A.** inconclusive: 39.8 µM [decreasing] [filaments grown with octadecylsulfate alongside compound]

**Q.** How did the Potency turn out when `COc1ccc(C(=O)c2c(C)n(CCN3CCOCC3)c3cc(I)ccc23)cc1` was run?
**A.** inconclusive: 39.8 µM [decreasing]

**Q.** `COc1ccc(C[C@H]2NC[C@H](O)[C@@H]2OC(C)=O)cc1` was tested. Which Potency did it give?
**A.** inconclusive: 39.8 µM [decreasing]

**Q.** `CCCCc1ccc2[nH]cc(CCN)c2c1` was tested. Which Potency did it give?
**A.** active: 15.8 µM

**Q.** For `Nc1ccc(-c2ccc(N)c(Cl)c2)cc1Cl`, which Potency is on record?
**A.** inconclusive: 31.6 µM [decreasing]

**Q.** With `c1cncc([C@H]2CCCCN2)c1` as the molecule, how does the Potency read?
**A.** inconclusive: 39.8 µM [decreasing] [filaments grown with octadecylsulfate alongside compound]

**Q.** `CCC(C)(C)n1nnnc1C(c1cccs1)N1CC=C(c2ccc(F)cc2)CC1` (stereo not drawn) was tested. Which Potency did it give?
**A.** inconclusive: 31.6 µM [decreasing]

**Q.** Which Potency does the source give for `CCOC(OCC)P(=O)(O)CCCN` here?
**A.** inconclusive: 31.6 µM [decreasing]

**Q.** For `CCC[C@@H]1CC2=CC(=O)CC[C@]2(C)[C@@H]2CC[C@@]3(C)[C@H](CC[C@]3(O)CCC(=O)O)[C@H]12`, which “activity change, negative = inhibition” value is on record?
**A.** inactive: -28.5%

**Q.** `NCCc1c[nH]c2ccccc12` was tested. Which “activity change, negative = inhibition” value did it give?
**A.** inactive: 3.2%

**Q.** How did the Potency turn out when `COC(=O)N1CCN(C(=O)Cc2ccc(Cl)c(Cl)c2)[C@H](CN2CCCC2)C1` was run?
**A.** inconclusive: 39.8 µM [decreasing]

**Q.** With `CCCCC/C=C\C/C=C\C/C=C\C/C=C\CCCC(=O)Nc1ccc(O)cc1` as the molecule, how does the Potency read?
**A.** active: 31.6 µM

**Q.** Which Potency does the source give for `O=C(/C=C\c1ccc(Cl)cc1)N[C@@]12CCC(=O)[C@@H]3Oc4c(O)ccc5c4[C@@]31CCN(CC1CC1)[C@@H]2C5` here?
**A.** inconclusive: 39.8 µM [decreasing]

**Q.** How did the Potency turn out when `CC(C)(O)[C@H]1O[C@@H]2CC[C@]3(C)[C@@]4(C)c5[nH]c6ccccc6c5C[C@@H]4CC[C@]3(O)C2=CC1=O` was run?
**A.** inconclusive: 39.8 µM [decreasing]

**Q.** Which Potency does the source give for `O=C(Nc1ccc2c(c1)OCO2)c1cn(Cc2ccc(F)cc2)nn1` here?
**A.** active: 12.6 µM

**Q.** For `C/C(=C\[C@@H](N)C(=O)O)CP(=O)(O)O`, which Potency is on record?
**A.** inconclusive: 39.8 µM [decreasing] [filaments grown with octadecylsulfate alongside compound]

**Q.** Which Potency does the source give for `Cn1cc(C(=O)C(=O)N[C@H]2CN3CCC2CC3)c2ccccc21` here?
**A.** inconclusive: 31.6 µM [decreasing]

**Q.** With `O=c1ccc2cc(O[C@@H]3O[C@@H](CO)[C@@H](O)[C@@H](O)[C@H]3O)c(O)cc2o1` as the molecule, how does the Potency read?
**A.** inconclusive: 39.8 µM [decreasing]

**Q.** For `CC[C@H]1[C@@H]2C[C@@H]3[C@@H]4N(C)c5ccccc5[C@@]45C[C@@H]([C@H]2[C@@H]5O)N3[C@@H]1O`, which Potency is on record?
**A.** inconclusive: 39.8 µM [decreasing] [filaments grown with octadecylsulfate alongside compound]

**Q.** How did the Potency turn out when `CCCN1CCC[C@@H]2Cc3[nH]ncc3C[C@H]21` was run?
**A.** inconclusive: 39.8 µM [decreasing]

**Q.** `C[C@@H](N)Cc1cnc[nH]1` was tested. Which Potency did it give?
**A.** inconclusive: 39.8 µM [decreasing]

**Q.** Which Potency does the source give for `CCCN1CCO[C@@H]2c3cc(O)ccc3OC[C@@H]21` here?
**A.** active: 39.8 µM

**Q.** Which Potency does the source give for `COc1ccc(N2CCN(CCCN)CC2)cc1` here?
**A.** active: 20 µM

**Q.** Which Potency does the source give for `C[C@@H](N)Cn1ccc2cc(F)c(Cl)cc21` here?
**A.** inconclusive: 39.8 µM [decreasing] [filaments grown with octadecylsulfate alongside compound]

**Q.** How did the Potency turn out when `C#CCN1C(C)=C(C(=O)CCO)[C@@H](c2cccc(-n3oo3)c2)C(C(=O)OC)=C1C` was run?
**A.** active: 39.8 µM

**Q.** `Cc1nc(N)sc1CCN` was tested. Which Potency did it give?
**A.** inconclusive: 39.8 µM [decreasing] [filaments grown with octadecylsulfate alongside compound]

**Q.** For `O=C1CS[C@@H](c2ccccc2Cl)c2cc(Cl)ccc2N1`, which Potency is on record?
**A.** inconclusive: 39.8 µM [decreasing]

**Q.** `Cc1nccc2c1[nH]c1ccccc12` was tested. Which Potency did it give?
**A.** inconclusive: 39.8 µM [decreasing]

**Q.** Which Potency does the source give for `Cc1cccc([C@H](C)c2cnc[nH]2)c1C` here?
**A.** inconclusive: 39.8 µM [decreasing]

**Q.** How did the “activity change, negative = inhibition” value turn out when `CCCCCCCCc1ccc(O)cc1` was run?
**A.** inactive: -3%

**Q.** Which “activity change, negative = inhibition” value does the source give for `CC(C)(Cc1c[nH]c2ccc(Cl)cc12)NCCOc1ccccc1OCC1CC1` here?
**A.** inactive: 49.6%

**Q.** With `C=C(C)[C@H]1[C@H]2OC(=O)[C@@H]1[C@]1(O)C[C@H]3O[C@]34C(=O)O[C@H]2[C@]14C` as the molecule, how does the Potency read?
**A.** active: 31.6 µM [filaments grown with octadecylsulfate alongside compound]

**Q.** Which Potency does the source give for `COc1ccc2c(c[n+](C)c3c4cc5c(cc4ccc23)OCO5)c1OC` here?
**A.** active: 31.6 µM

**Q.** With `CCCCn1c(O)c(C=NC2CC3CCC2(C)C3(C)C)c(=O)[nH]c1=O` (stereo not drawn) as the molecule, how does the Potency read?
**A.** inconclusive: 20 µM [decreasing]

**Q.** `CCOC(=O)c1ncn2c1[C@H]1CCCN1C(=O)c1cc(OC)ccc1-2` was tested. Which Potency did it give?
**A.** inconclusive: 39.8 µM [decreasing]

**Q.** Which Potency does the source give for `CO[C@@H](C)[C@](O)(C(=O)OC1=CCN2CC[C@H](O)[C@H]12)C(C)C` here?
**A.** inconclusive: 39.8 µM [decreasing] [filaments grown with octadecylsulfate alongside compound]

**Q.** With `CN(C)c1ccc(N=Nc2ccccc2)cc1` as the molecule, how does the Potency read?
**A.** active: 15.8 µM

**Q.** With `CC(C)CC(C)Nc1ccc(Nc2ccccc2)cc1` (stereo not drawn) as the molecule, how does the Potency read?
**A.** active: 15.8 µM

**Q.** For `C[C@@H](Cc1ccccc1)NCCC(c1ccccc1)c1ccccc1`, which Potency is on record?
**A.** inconclusive: 2.51 µM [decreasing]

**Q.** For `CN(N=O)c1cc(O)ccc1O`, which Potency is on record?
**A.** inconclusive: 39.8 µM [decreasing]

**Q.** For `O=C1CCCN1CC#CCN1CCCC1`, which Potency is on record?
**A.** inconclusive: 39.8 µM [decreasing]

**Q.** For `NC1CCC(CC2CCC(N)CC2)CC1` (stereo not drawn), which Potency is on record?
**A.** inconclusive: 31.6 µM [decreasing] [filaments grown with octadecylsulfate alongside compound]

**Q.** Which Potency does the source give for `CC(C)(O)[C@@H]1[C@H]2OC(=O)[C@@H]1[C@]1(O)C[C@H]3O[C@]34C(=O)O[C@H]2[C@@]14C` (tested in a mixture with another compound) here?
**A.** inconclusive: 39.8 µM [decreasing] [filaments grown with octadecylsulfate alongside compound]

**Q.** `CC(C)n1cnc2c(C(=O)N[C@H]3CN4CCC3CC4)cc(Cl)cc21` was tested. Which Potency did it give?
**A.** inconclusive: 39.8 µM [decreasing]

**Q.** How did the Potency turn out when `CCCOc1ccc2[nH]cc(C3=CCNCC3)c2n1` was run?
**A.** inconclusive: 39.8 µM [decreasing]

**Q.** Which Potency does the source give for `COC(=O)[C@@H](N)CCCN=C(N)N[N+](=O)[O-]` here?
**A.** inconclusive: 39.8 µM [decreasing]

**Q.** Which “activity change, negative = inhibition” value does the source give for `Nc1cccc(Cl)c1` here?
**A.** inactive: -15.3% [at 57.1 µM, filaments grown with octadecylsulfate alongside compound]

**Q.** `C=C(C)CN1CC[C@@]23c4c5ccc(O)c4O[C@H]2c2[nH]c4ccccc4c2C[C@]3(O)[C@@H]1C5` was tested. Which Potency did it give?
**A.** inconclusive: 39.8 µM [decreasing]

**Q.** `CC[C@]1(C2=NCCN2)Cc2ccccc2O1` was tested. Which Potency did it give?
**A.** inconclusive: 39.8 µM [decreasing]

**Q.** With `Fc1ccc(C(OCCN2CCN(CCCc3ccccc3)CC2)c2ccc(F)cc2)cc1` as the molecule, how does the Potency read?
**A.** inconclusive: 15.8 µM [decreasing]

**Q.** `COc1cc2c(cc1OC)[C@H](C)NCC2` was tested. Which Potency did it give?
**A.** inconclusive: 39.8 µM [decreasing] [filaments grown with octadecylsulfate alongside compound]
